Measured values published in the supplement of paper PMC12217912.
Some of the results follow. The full chains were built here from the parent and the listed change. Values near 0.05 are background.

B1: TEV protease; numbered along this chain (parent)
chain: MGESLFKGPRDYNPISSSICHLTNESDGHTTSLYGIGFGPFIITNKHLFRRNNGTLVVQSLHGVFKVKDTTTLQQHLVDGRDMIIIRMPKDFPPFPQKLKFREPQREERICLVTTNFQTKSMSSMVSDTSCTFPSGDGIFWKHWIQTKDGQCGSPLVSTRDGFIVGIHSASNFTNTNNYFTSVPKNFMELLTNQEAQQWVSGWRLNADSVLWGGHKVFMVKPEEPFQPVKEATQL

Variants of: B1
Assay: raw area under fraction-flipped curve 0-4 h after induction (AUC4h, not background-subtracted), DNA-recorder readout of cleavage of the substrate (dimensionless); higher = more cleavage of the substrate by the protease variant
Details: temperature: 34 °C; time window: 0-4 h after rhamnose induction
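Also: Bxb1 expression induced with 0.2% (w/v) L-rhamnose at OD600 near 0.5, cultures sampled hourly, flipped fraction per protease–substrate barcode pair counted by paired-end Illumina sequencing.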

Variant	area with substrate ENCYFQS	area with substrate ENDYFQS	area with substrate ENEYFQS	area with substrate ENGYFQS	area with substrate ENHYFQS	area with substrate ENIYFQS	area with substrate ENKYFQS	area with substrate ENNYFQS	area with substrate ENQYFQS	area with substrate ENSYFQS
L211Y	0.0641	0.0591	0.0784	0.0865	0.0598	0.118	0.0694	0.0592	0.0605	0.0632
S124L		0.0534	0.0631	0.0644		0.105			0.0601	
G2C										0.05
V165W	0.0276	0.0623	0.0542		0.0495	0.0695		0.0395	0.0537	
S171A					0.0624					0.0601
S171Q	0.0653			0.0703	0.079	0.0732	0.0517			0.0806
Q105P		0.0459	0.0502	0.0419	0.0606			0.0639	0.0443	0.0451
L205I		0.0598	0.0696	0.0566						0.068
S18H		0.0763	0.0673					0.0598		0.062
K185H			0.0609	0.0722					0.0578	0.0683
S154T			0.0465	0.0548		0.112			0.0628	0.0652
L73N		0.0552	0.0479		0.0718	0.0463	0.039	0.0502	0.0598	
L73K			0.0312						0.0604	0.0418
W203M	0.0507		0.074	0.0617	0.0561	0.0651		0.0484	0.0443	0.0564
S158F		0.0631	0.0518				0.0637		0.0502	0.0769
E108F		0.0555	0.0599		0.0589			0.0457	0.0507	0.0559
M125I					0.055			0.0552	0.0532	0.0518

Same assay, conditions: temperature: 34 °C; time window: 0-4 h after rhamnose induction

Variant	area with substrate ENTYFQS	area with substrate ENVYFQS	area with substrate ENPYFQS	area with substrate ENRYFQS	area with substrate ENWYFQS	area with substrate ENYYFQS	area with substrate ENFYFQS	area with substrate ENMYFQS
L211Y	0.0604	0.0872						
S124L		0.079	0.0395	0.0531	0.0648	0.0612		
G2C	0.0603							
V165W	0.0601	0.0476	0.0661	0.0498				
S171Q	0.0574		0.0605				0.0747	0.0794
Q105P	0.0293	0.0458			0.0541			0.0525
L205T							0.0377	
L205I						0.0617		
S18H	0.0486	0.0782	0.0497	0.0634	0.0518		0.0624	
K185H	0.0452		0.0727		0.0626		0.0627	
S154T	0.0534	0.0824			0.0053		0.0518	0.0853
L73N	0.0556			0.0467		0.0622		0.0495
L73K	0.0473				0.0423			0.0492
W203M	0.0456	0.0524		0.059		0.0688		
S158F				0.0558	0.041			
E108F	0.0567	0.0755		0.0596		0.0594		
M125I				0.0743				0.0401
